The list shows a part of the results. Further columns of the screen follow, without active or inactive calls. Compounds called inactive in the main read-out are mostly missing here.

The nature of the experiment: TAG lipid buildup reduction in H9c2 cells – cell-based, uHTS, fluorescence, primary screen (AID 651582). As to conditions: Nile Red lipid (TAG) fluorescence, measured here:, at 12.5 µM; cells loaded with 200 µM oleic acid unless noted.
As to `C=C1C(=O)O[C@@H]2C[C@@H](C)[C@@H]3C4OC4C(=O)[C@@]3(C)[C@@H](O)[C@H]12` (stereo not given in full), the DAPI nuclei signal change (viability), lower = more cytotoxic is -25.6% [setting not given]. With `CCOC(=O)c1c(N)n(CCCOC(=O)c2ccco2)c2nc3ccccc3nc12` the figure was -11.1% [setting not given]. For `CN1CCC(N(C)c2nc(-c3ccc([N+](=O)[O-])cc3)nc3ccccc23)CC1`, the DAPI nuclei signal change (viability), lower = more cytotoxic was -27.1% [setting not given]. In the case of `COC(=O)C1=C(c2cc3ccccc3s2)C[C@@H]2CC[C@H]1N2C(=O)N1CCOCC1` it was -39.2%; in that of `Ic1ccccc1CN[C@@H]1C2CCN(CC2)[C@@H]1C(c1ccccc1)c1ccccc1`, -42.4%.

As to `COCCCn1c(N)c(C(=O)Nc2ccccc2)c2nc3ccccc3nc21`, the DAPI nuclei signal change (viability), lower = more cytotoxic is 15.2% [setting not given]. In the case of `C=C1C(=O)O[C@@H]2C[C@@H](C)[C@@H]3C=CC(=O)[C@@]3(C)[C@@H](O)[C@H]12` it was -50%; in that of `C=C1C(C)C2C(Cc3ccccc3)NC(=O)C23C(OC(C)=O)C=CC(C)(O)CC(C)CC=CC3C1O` (stereo not given), -44.5%; in that of `COC(=O)C1=C(c2ccc(OCc3ccccc3)cc2)C[C@@H]2CC[C@H]1N2C(=O)NCc1ccc(OC)c(OC)c1`, -7.8%. In the case of `COC(=O)[C@]12OC[C@]34C([C@@H](O)[C@@H]1O)[C@]1(C)CC(=O)C(O)=C(C)[C@@H]1C[C@H]3OC(=O)[C@H](O)[C@@H]24` (stereo not given in full) it was -45.1% [setting not given]; in that of `CC1=CC(=C2C(=O)NC(=S)NC2=O)C=C(C(F)(F)F)N1Cc1ccccc1`, -43.9% [setting not given]; in that of `O=[N+]([O-])c1ccc(N2CCOCC2)c2c1no[n+]2[O-]`, 136%. With `COc1ccc(C2=CC(c3ccc4c(c3)OCO4)c3c(c4ccccc4oc3=O)O2)cc1OC` (stereo not given) the figure was -35.8%; with `CC1CCC(C(C)C)C(OC(=O)Cn2c(COc3ccccc3)[n+](C)c3ccccc32)C1` (stereo not given), -39.8% [setting not given]; with `COC1=C(C)C(=O)C2=C(C1=O)C(CO)N1C(C#N)C3CC4C(C1C2N1CCOC41)N3C` (stereo not given), -39.7%. As to `CC(=O)OC12COC1CC(O)C1(C)C(=O)C(O)C3=C(C)C(O)CC(O)(C(OC(=O)c4ccccc4)C21)C3(C)C` (stereo not given), the DAPI nuclei signal change (viability), lower = more cytotoxic was -24.7%.

Take `COc1ccc2[nH]c(C)c(CCNCc3cn(C)c4ccccc34)c2c1`: the DAPI nuclei signal change (viability), lower = more cytotoxic is -17%. With `COc1cc2c(c(OC)c1OC)-c1ccc(O)cc1C(NC(C)=O)CC2` (stereo not given) the figure was -37.1%; with `COc1cccc(N=Nc2c(O)[nH]c(=S)[nH]c2=O)c1`, -45.4% [setting not given]. Regarding `CC[C@@H](O)C[C@H]1CCC[C@@]2(C[C@@H]3OC(=O)/C=C/[C@@](C)(O)[C@@H](O)[C@H](C)[C@@H](O)[C@H](OC4CCC(N(C)C)C(C)O4)[C@@H](O)[C@](C)(O)CCCCC/C=C/[C@@H]4CC(C)(C)O[C@@]4(O)C[C@H](O2)[C@H]3C)O1` (stereo not given in full), the DAPI nuclei signal change (viability), lower = more cytotoxic was -34.4%.

As to `CCCCn1c(N)c(C(=O)NCc2cccs2)c2nc3ccccc3nc21`, the DAPI nuclei signal change (viability), lower = more cytotoxic turned out to be 11% [setting not given]. In the case of `CCOC(=O)C(NC(=O)CC)(Nc1ccc(C(O)(C(=O)OCC)C(F)(F)F)cc1C)C(F)(F)F` (stereo not given) it was 0.614% [setting not given]. As to `COC(=O)C1=C(C(=O)OC)C2OC1c1cc3ccccc3cc12`, the DAPI nuclei signal change (viability), lower = more cytotoxic is -41.1%. In the case of `CC1=CC(C)CC(C)OC(=O)CC(c2ccc(O)cc2)NC(=O)C(Cc2c(Br)[nH]c3ccccc23)N(C)C(=O)C(C)NC(=O)C(C)C1` (stereo not given) it was -49.8%; in that of `COC(COC(N)=O)C1=C(N2CC2)C(=O)C(C)=C(N2CC2)C1=O` (stereo not given), -48.2%; in that of `COC(=O)C1=C(c2ccc(OCc3ccccc3)cc2)C[C@@H]2CC[C@H]1N2C(=O)NCc1ccc(C(C)(C)C)cc1`, -12.6%. In the case of `COc1ccc(C[C@@H]2c3cc(O)c(OC)cc3CCN2C)cc1O` it was -39.9% [setting not given]; in that of `CN1CSC(=S)N(C)C1`, -48.4% [setting not given]; in that of `Cc1cccc(N=C2c3cc([N+](=O)[O-])ccc3-c3c2cc([N+](=O)[O-])cc3[N+](=O)[O-])c1`, -34.5%. In the case of `COC(=O)C1=C(c2ccccc2OCc2ccccc2)C[C@@H]2CC[C@H]1N2C(=O)NCc1ccc(OC)c(OC)c1` it was -12.6%. In the case of `O=P(O)(O)CN1CCNCCN(CP(=O)(O)O)CCNCC1`, the DAPI nuclei signal change (viability), lower = more cytotoxic was -43.6%. With `NC(N)=N/N=C/c1cn(-c2ccccc2)nc1-c1cccs1`, the DAPI nuclei signal change (viability), lower = more cytotoxic was -42.5% [setting not given]. In the case of `N#Cc1c(Br)n(C2OC(CO)C(O)C2O)c2ncnc(N)c12` (stereo not given) it was -5.69%; in that of `CCCCCCC(C)(C)c1ccc([C@@H]2C[C@H](O)CC[C@H]2CCCO)c(O)c1`, -33% [setting not given].

As to `COC1CCC(OC2CC(C3(C)CCC4(CC(O)C(C)C(C(C)/C=C(\C)C(=O)C(C)CC(C)C(=O)O)O4)O3)OC3(OC(C4OC(O)(CO)C(C)CC4C)CC3C)C2C)OC1C` (stereo not given), the DAPI nuclei signal change (viability), lower = more cytotoxic is -44.6%. As to `N#Cc1cn(C2OC(CO)C(O)C2O)c2ncnc(N)c12` (stereo not given), the DAPI nuclei signal change (viability), lower = more cytotoxic is -48.6%. Consider `COc1cc2nc(CN3CC=C(c4ccccc4)CC3)[nH]c(=O)c2cc1OC`, for which the DAPI nuclei signal change (viability), lower = more cytotoxic is -48.4%.

On to `COc1cc2c(cc1OC)-c1c3c(cc4c1[C@@H](C2)N(C)CC4)OCO3`, for which the DAPI nuclei signal change (viability), lower = more cytotoxic was -16.2% [setting not given]. In the case of `CNc1cc(Cl)c2nonc2c1[N+](=O)[O-]` it was -41.1% [setting not given]; in that of `COc1cc2c3c(c1OC)Oc1ccc(cc1)C[C@H]1c4c(cc(OC)c(OC)c4Oc4ccc(cc4)C[C@@H]3N(C)CC2)CCN1C`, -40%.

The values are drawn from PubChem BioAssay AID651582 (Sanford-Burnham Center for Chemical Genomics, 2012).
